According to PubChem BioAssay AID624417 (National Center for Advancing Translational Sciences (NCATS), 2012):
The whole screen tested about 410,000 compounds, of which about 6,400 (1.6%) were called active. Inconclusive means that the source gave no clear call. Such entries were picked first, then a sample of the others. Calls follow the shape of the dose curve; as a rule, active = well fitted inhibition curve with a large enough effect; inconclusive = small, poorly fitted or top-dose-only effect; inactive = no such curve, though single readings can be large or run the other way. Potencies beside an inconclusive call are fits to weak or partial responses and may not hold up.

Molecular target: Glucagon-like peptide 1 receptor (Homo sapiens) (UniProt P43220)
Assay: qHTS of GLP-1 Receptor Inverse Agonists (Inhibition Mode); also: nearly all actives have a fitted effect of over 55% in size
Details: HEK293 GLP-1R CRE-luciferase, luminescence, 24 h, GLP-1R form is constitutively active; activity change, negative = inhibition: at 38.3 µM (top of the series) unless noted
Summary of the method: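 Readout was luciferase luminescence, measured 12 min after detection reagent at room temperature. Beforehand, GLP-1R reporter HEK293 cells had sat 12 h, then received compounds for 24 hr at 37 deg C.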
% is scaled to controls: 0 for no effect and ±100 for the full control effect; potency is read from the fitted curve at half-maximal effect; tags tell the direction and shape of the fitted curve.

Chain of UniProt P43220 (P43220 whole entry, looked up): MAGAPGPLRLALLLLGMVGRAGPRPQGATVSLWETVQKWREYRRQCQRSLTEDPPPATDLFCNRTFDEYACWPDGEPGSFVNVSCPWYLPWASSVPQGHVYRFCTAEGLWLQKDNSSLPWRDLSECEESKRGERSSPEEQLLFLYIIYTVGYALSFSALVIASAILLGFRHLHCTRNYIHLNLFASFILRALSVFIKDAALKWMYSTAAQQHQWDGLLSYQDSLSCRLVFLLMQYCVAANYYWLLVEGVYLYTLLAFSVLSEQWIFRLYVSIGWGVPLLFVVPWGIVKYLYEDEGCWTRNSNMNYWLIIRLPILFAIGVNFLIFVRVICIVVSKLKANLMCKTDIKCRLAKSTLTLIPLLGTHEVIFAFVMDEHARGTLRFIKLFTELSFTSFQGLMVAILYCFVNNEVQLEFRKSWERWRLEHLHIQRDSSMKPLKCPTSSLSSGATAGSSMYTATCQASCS

Potency, active:
COc1ccccc1NC(=S)NC(=O)c1c(-c2ccccc2Cl)noc1C 3.98 µM

Potency, inconclusive:
O=c1cc(CN2CCC3(CC2)OCCO3)c2c(ccc3ccccc32)o1 28.2 µM [inhibitor, single point]
O=C(N/C=C/c1ccc(Cl)cc1)NCc1ccc(Cl)cc1 10 µM [inhibitor, single point]
O=C(C[C@H]1C[C@H](C(=O)N2CCOCC2)[C@@]2(CCC3CCCC3)c3[nH]c4ccc(Cl)cc4c3CCN2C1=O)NCCCn1ccnc1 28.2 µM [inhibitor, single point]
O=C(NC1CCN(Cc2ccccc2)CC1)c1ccccc1NS(=O)(=O)c1ccc(F)c(F)c1 5.01 µM [inhibitor, full curve, poor fit]
COc1ccccc1N(CC(=O)NCCSc1ccc(Cl)cc1)S(C)(=O)=O 28.2 µM [inhibitor, single point]
COc1cc(/C=C(\C#N)C(=O)NC2CCCCC2C)ccc1OS(=O)(=O)c1ccc(C)cc1 (configuration not stated) 3.55 µM [inhibitor, partial curve]
CCOC(=O)c1csc(Nc2nc3ccc(F)cc3s2)n1 5.62 µM [inhibitor, full curve, poor fit]
CCOc1cc(/C=N/O)ccc1OS(=O)(=O)c1ccc(C)cc1 12.6 µM [inhibitor, single point]
CC1(C)C2CC=C(/C=N/NC(=O)c3ccc(Cl)cc3)C1C2 (configuration not stated) 10 µM [inhibitor, partial curve, poor fit]
CCN(CC(=O)NCc1cccs1)C(=O)/C=C/c1ccc(Cl)c(Cl)c1 31.6 µM [inhibitor, partial curve, poor fit]
CCN(c1ccccc1)S(=O)(=O)c1ccc(Cl)c(C(=O)NCc2ccco2)c1 12.6 µM [inhibitor, partial curve, poor fit]
CC(=O)c1cccc(CN2CCCC(C(=O)Nc3cccc(-n4cccn4)c3)C2)c1 (configuration not stated) 10 µM [inhibitor, partial curve, poor fit]

Activity change, negative = inhibition, inactive:
Cc1ccc(C)c(NC(=O)Cn2cc(S(=O)(=O)NC(C)C)c(S(=O)(=O)NC(C)C)c2)c1 -12.3%
COc1ccc2[nH]c3c(c2c1)CCN1C(=O)N([C@@H](C)C(=O)NCc2ccco2)C(=O)[C@]31C 14.3%
O=[N+]([O-])c1ccc2c(c1)[nH]c(=S)n2-c1ccccc1 20.9%
Cc1ccc(OCc2cc(=O)n3cc(C)sc3n2)c(NC(=O)c2ccco2)c1 11.3%
